Test results as given in patent US11178870B2 (priority 2017, dated 2021).

What was measured:
Type in all cases: in vivo
Puccinia recondita = experiment: Test Example E: Brown rust on wheat; settings: for control value, Test E (brown rust on wheat): Table 7, Test E; for Test E control value (brown rust on wheat): class of control value, Table 7; for Test E control value: Brown rust on wheat
[1] = test system: Blumeria graminis f. sp. hordei; experiment: Test Example D: Powdery mildew on barley; settings: for control value, Test D (powdery mildew on barley): Table 7, Test D; for Test D control value (powdery mildew on barley): class of control value, Table 7; for Test D control value: Powdery mildew on barley
Botrytis cinerea = experiment: Test Example B: Gray mold on tomato; settings: for control value, Test B (gray mold on tomato): Table 7, Test B; for Test B control value (gray mold on tomato): class of control value, Table 7; for Test B control value: Gray mold on tomato
Alternaia brassicicola = experiment: Test Example C: Alternaria sooty spot on cabbage; settings: for control value, Test C (Alternaria sooty spot on cabbage): Table 7, Test C; for Test C control value (Alternaria sooty spot on cabbage): class of control value, Table 7; for Test C control value: Alternaria sooty spot on cabbage
Plasmopara viticola = experiment: Test Example G: Downy mildew on vine; settings: for control value, Test G (downy mildew on vine): 250 ppm sprayed (2.5 ml/pot) before inoculation, assessed 7 to 10 days after inoculation; for Test G control value (downy mildew on vine): 250 ppm spray, investigated 7 to 10 days after inoculation; for Test G control value (downy mildew on vine) / Test G control value: 2.5 ml/pot; for Test G control value: Downy mildew on vine, 250 ppm sprayed, 7 to 10 days after inoculation

CCn1c(-c2ccc(OC)cc2F)c(-n2cc(F)cn2)cc(Cl)c1=O [Compound 301]
control value, Test E (brown rust on wheat) (Puccinia recondita): H (H shows the control value more than 50%)
control value, Test D (powdery mildew on barley) [1]: H (H shows the control value more than 50%)
control value, Test B (gray mold on tomato) (Botrytis cinerea): H (H shows the control value more than 50%)
control value, Test C (Alternaria sooty spot on cabbage) (Alternaia brassicicola): H (H shows the control value more than 50%)
control value, Test G (downy mildew on vine) (Plasmopara viticola): L (L shows the control value of 50% or less)

CCn1c(-c2c(F)cc(F)cc2F)c(-n2cnc(Cl)n2)cc(Cl)c1=O [Compound 261]
control value, Test E (brown rust on wheat) (Puccinia recondita): H (H shows the control value more than 50%)
control value, Test D (powdery mildew on barley) [1]: H (H shows the control value more than 50%)
control value, Test B (gray mold on tomato) (Botrytis cinerea): H (H shows the control value more than 50%)
control value, Test C (Alternaria sooty spot on cabbage) (Alternaia brassicicola): H (H shows the control value more than 50%)
control value, Test G (downy mildew on vine) (Plasmopara viticola): L (L shows the control value of 50% or less)

CCn1c(-c2c(F)cccc2Cl)c(-n2cc(F)cn2)cc(Br)c1=O [Compound 380]
Test E control value (brown rust on wheat) (Puccinia recondita): H (H shows the control value more than 50%)
Test D control value (powdery mildew on barley) [1]: L (L shows the control value of 50% or less)
Test B control value (gray mold on tomato) (Botrytis cinerea): H (H shows the control value more than 50%)
Test C control value (Alternaria sooty spot on cabbage) (Alternaia brassicicola): H (H shows the control value more than 50%)
Test G control value (downy mildew on vine) (Plasmopara viticola): L (L shows the control value of 50% or less)

CCn1c(-c2ccccc2Cl)c(-n2ncc(C)c2Cl)cc(Br)c1=O [Compound 181]
Test E control value (Puccinia recondita): H (H shows the control value more than 50%)
Test D control value [1]: H (H shows the control value more than 50%)
Test B control value (Botrytis cinerea): H (H shows the control value more than 50%)
Test C control value (Alternaia brassicicola): H (H shows the control value more than 50%)
Test G control value (Plasmopara viticola): H (H shows the control value more than 50%)

CCn1c(-c2c(F)cccc2F)c(-c2cnc(I)o2)cc(Cl)c1=O [Compound 92]
Test E control value (Puccinia recondita): L (L shows the control value of 50% or less)
Test D control value [1]: L (L shows the control value of 50% or less)
Test B control value (Botrytis cinerea): H (H shows the control value more than 50%)
Test C control value (Alternaia brassicicola): L (L shows the control value of 50% or less)
Test G control value (Plasmopara viticola): L (L shows the control value of 50% or less)

CCn1c(-c2c(F)cccc2F)c(-c2ccsc2Br)ccc1=O [Compound 44]
Test E control value (Puccinia recondita): H (H shows the control value more than 50%)
Test D control value [1]: H (H shows the control value more than 50%)
Test B control value (Botrytis cinerea): H (H shows the control value more than 50%)
Test C control value (Alternaia brassicicola): H (H shows the control value more than 50%)
Test G control value (Plasmopara viticola): H (H shows the control value more than 50%)

O=c1ccc(-c2cccnc2Cl)c(-c2c(F)cc(F)cc2F)n1CC(F)F [Compound 67]
Test E control value (Puccinia recondita): H (H shows the control value more than 50%)
Test D control value [1]: H (H shows the control value more than 50%)
Test B control value (Botrytis cinerea): H (H shows the control value more than 50%)
Test C control value (Alternaia brassicicola): H (H shows the control value more than 50%)
Test G control value (Plasmopara viticola): H (H shows the control value more than 50%)

CCn1c(-c2c(F)cccc2F)c(-c2sc(Br)cc2Cl)cc(Br)c1=O [Compound 398]
Test E control value (brown rust on wheat) (Puccinia recondita): H (H shows the control value more than 50%)
Test D control value (powdery mildew on barley) [1]: L (L shows the control value of 50% or less)
Test B control value (gray mold on tomato) (Botrytis cinerea): H (H shows the control value more than 50%)
Test C control value (Alternaria sooty spot on cabbage) (Alternaia brassicicola): H (H shows the control value more than 50%)
Test G control value (downy mildew on vine) (Plasmopara viticola): L (L shows the control value of 50% or less)

CCn1c(-c2c(F)cccc2F)c(-c2ocnc2F)cc(Cl)c1=O [Compound 51]
Test E control value (Puccinia recondita): H (H shows the control value more than 50%)
Test D control value [1]: H (H shows the control value more than 50%)
Test B control value (Botrytis cinerea): H (H shows the control value more than 50%)
Test C control value (Alternaia brassicicola): H (H shows the control value more than 50%)
Test G control value (Plasmopara viticola): H (H shows the control value more than 50%)

CCn1c(-c2ccccc2Cl)c(-n2cc(F)cn2)cc(Cl)c1=O [Compound 351]
control value, Test E (brown rust on wheat) (Puccinia recondita): H (H shows the control value more than 50%)
control value, Test D (powdery mildew on barley) [1]: H (H shows the control value more than 50%)
control value, Test B (gray mold on tomato) (Botrytis cinerea): H (H shows the control value more than 50%)
control value, Test C (Alternaria sooty spot on cabbage) (Alternaia brassicicola): H (H shows the control value more than 50%)
control value, Test G (downy mildew on vine) (Plasmopara viticola): L (L shows the control value of 50% or less)

CCn1c(-c2c(F)cc(OCOC)cc2F)c(-n2cc(Cl)cn2)cc(Cl)c1=O [Compound 203]
control value, Test E (brown rust on wheat) (Puccinia recondita): H (H shows the control value more than 50%)
control value, Test D (powdery mildew on barley) [1]: H (H shows the control value more than 50%)
control value, Test B (gray mold on tomato) (Botrytis cinerea): H (H shows the control value more than 50%)
control value, Test C (Alternaria sooty spot on cabbage) (Alternaia brassicicola): H (H shows the control value more than 50%)
control value, Test G (downy mildew on vine) (Plasmopara viticola): L (L shows the control value of 50% or less)

O=c1c(Br)cc(-c2cccnc2Cl)c(-c2c(F)cccc2F)n1CC(F)(F)F [Compound 64]
Test E control value (Puccinia recondita): H (H shows the control value more than 50%)
Test D control value [1]: H (H shows the control value more than 50%)
Test B control value (Botrytis cinerea): H (H shows the control value more than 50%)
Test C control value (Alternaia brassicicola): L (L shows the control value of 50% or less)
Test G control value (Plasmopara viticola): L (L shows the control value of 50% or less)

CCn1c(-c2c(F)cc(OC)cc2F)c(-c2oc(Br)nc2Br)cc(Cl)c1=O [Compound 116]
Test E control value (Puccinia recondita): H (H shows the control value more than 50%)
Test D control value [1]: L (L shows the control value of 50% or less)
Test B control value (Botrytis cinerea): H (H shows the control value more than 50%)
Test C control value (Alternaia brassicicola): H (H shows the control value more than 50%)
Test G control value (Plasmopara viticola): H (H shows the control value more than 50%)

Cn1c(-c2ccc(F)cc2Cl)c(-n2cc(F)cn2)cc(Cl)c1=O [Compound 482]
Test E control value (brown rust on wheat) (Puccinia recondita): H (H shows the control value more than 50%)
Test D control value (powdery mildew on barley) [1]: H (H shows the control value more than 50%)
Test B control value (gray mold on tomato) (Botrytis cinerea): H (H shows the control value more than 50%)
Test C control value (Alternaria sooty spot on cabbage) (Alternaia brassicicola): H (H shows the control value more than 50%)
Test G control value (downy mildew on vine) (Plasmopara viticola): L (L shows the control value of 50% or less)

Cc1cnn(-c2cc(Br)c(=O)n(CC(F)F)c2-c2ccc(F)cc2Br)c1Cl [Compound 341]
control value, Test E (brown rust on wheat) (Puccinia recondita): H (H shows the control value more than 50%)
control value, Test D (powdery mildew on barley) [1]: H (H shows the control value more than 50%)
control value, Test B (gray mold on tomato) (Botrytis cinerea): H (H shows the control value more than 50%)
control value, Test C (Alternaria sooty spot on cabbage) (Alternaia brassicicola): H (H shows the control value more than 50%)
control value, Test G (downy mildew on vine) (Plasmopara viticola): L (L shows the control value of 50% or less)

CCn1c(-c2c(F)cc(F)cc2F)c(-c2ocnc2F)cc(Cl)c1=O [Compound 120]
Test E control value (Puccinia recondita): H (H shows the control value more than 50%)
Test D control value [1]: L (L shows the control value of 50% or less)
Test B control value (Botrytis cinerea): H (H shows the control value more than 50%)
Test C control value (Alternaia brassicicola): H (H shows the control value more than 50%)
Test G control value (Plasmopara viticola): L (L shows the control value of 50% or less)

CCn1c(-c2ccc(F)cc2Br)c(-n2cc(Cl)cn2)cc(Br)c1=O [Compound 166]
Test E control value (Puccinia recondita): H (H shows the control value more than 50%)
Test D control value [1]: L (L shows the control value of 50% or less)
Test B control value (Botrytis cinerea): H (H shows the control value more than 50%)
Test C control value (Alternaia brassicicola): H (H shows the control value more than 50%)
Test G control value (Plasmopara viticola): H (H shows the control value more than 50%)

CCn1c(-c2c(F)cccc2F)c(-c2cnc(OC)o2)cc(Cl)c1=O [Compound 130]
Test E control value (Puccinia recondita): L (L shows the control value of 50% or less)
Test D control value [1]: L (L shows the control value of 50% or less)
Test B control value (Botrytis cinerea): L (L shows the control value of 50% or less)
Test C control value (Alternaia brassicicola): H (H shows the control value more than 50%)
Test G control value (Plasmopara viticola): L (L shows the control value of 50% or less)

O=c1c(Cl)cc(-c2sc(Cl)cc2Cl)c(-c2c(F)cccc2F)n1CC(F)F [Compound 436]
Test E control value (brown rust on wheat) (Puccinia recondita): H (H shows the control value more than 50%)
Test D control value (powdery mildew on barley) [1]: H (H shows the control value more than 50%)
Test B control value (gray mold on tomato) (Botrytis cinerea): H (H shows the control value more than 50%)
Test C control value (Alternaria sooty spot on cabbage) (Alternaia brassicicola): H (H shows the control value more than 50%)
Test G control value (downy mildew on vine) (Plasmopara viticola): H (H shows the control value more than 50%)

Cc1cnn(-c2cc(Br)c(=O)n(CC(F)F)c2-c2ccc(F)cc2Cl)c1Cl [Compound 345]
control value, Test E (brown rust on wheat) (Puccinia recondita): H (H shows the control value more than 50%)
control value, Test D (powdery mildew on barley) [1]: H (H shows the control value more than 50%)
control value, Test B (gray mold on tomato) (Botrytis cinerea): H (H shows the control value more than 50%)
control value, Test C (Alternaria sooty spot on cabbage) (Alternaia brassicicola): H (H shows the control value more than 50%)
control value, Test G (downy mildew on vine) (Plasmopara viticola): H (H shows the control value more than 50%)

Cc1cnn(-c2cc(Br)c(=O)n(CC(F)F)c2-c2ccc(F)cc2Cl)c1 [Compound 344]
control value, Test E (brown rust on wheat) (Puccinia recondita): H (H shows the control value more than 50%)
control value, Test D (powdery mildew on barley) [1]: H (H shows the control value more than 50%)
control value, Test B (gray mold on tomato) (Botrytis cinerea): H (H shows the control value more than 50%)
control value, Test C (Alternaria sooty spot on cabbage) (Alternaia brassicicola): H (H shows the control value more than 50%)
control value, Test G (downy mildew on vine) (Plasmopara viticola): H (H shows the control value more than 50%)
